# Test results reported in ChEMBL document CHEMBL4888484, “Replenishing the malaria drug discovery pipeline: Screening and hit evaluation of the MMV Hit Generation Library 1 (HGL1) against asexual blood stage Plasmodium falciparum ,using a nano luciferase reporter read-out” (2022).
# Hit rate of the full screen: of about 150,000 compounds, about 540 (0.36%) showed an effect of 50% or more. Some of the results follow.
# Tested on: Plasmodium falciparum
# Experiment: Primary screen in NF54 nanoGlo assay, in single point, at 2uM, 72h; a lower Z score goes with more inhibition
# Type: functional, Erythrocyte
# Conditions: timepoint 72 hour
SMILES,% Inhibition [%],Z score
C[C@H]1CCCN(c2cc(C(=O)NCCC3=CCCCC3)c3ccccc3n2)C1,-7,1.03
CCC=C(C)C(=O)NCc1cccnc1OCC,-13,1.37
CC(C)(C)OC(=O)N1CC(C(=O)Nc2ccc(OC(F)(F)F)cc2)C1,-5,0.61
COc1ccc(C)cc1[C@@H](C)NC(=O)N1CCN2C(=O)NCC2C1 (some centres undefined),-11,1.52
CC(C)c1cc(C(=O)N2C3CCC2CC(N(C)C(=O)c2ccccc2)C3)no1 (centres undefined),4,-0.6
COCc1noc(-c2cc(C3CC3)nc3c2cnn3[C@@H](C)C2CC2)n1,-5,0.4
Cc1nc2cc(C(=O)N(C[C@H]3CCCCO3)C(C)C)cnc2[nH]1,-5,0.57
COc1ccccc1C(=O)N(C)[C@@H](C)CS(C)(=O)=O,0,-0.04
Clc1ccccc1-c1ncnn1CN1CCOC2CCCC21 (centres undefined),2,-0.41
Cc1cccc(C)c1OCCOC(=O)c1c(C)nn(C)c1Cl,-6,1.08
Cc1cc(-c2ccnc(-n3ncc(C(=O)N(C)CC(C)C)c3C)n2)c(C)s1,-7,0.88
C[C@@H](CC(=O)O)N(C(N)=O)c1ccc(Nc2ccccc2)cc1,33,-4.2
c1cn(Cc2ccc3c(c2)CCCO3)c(C2CC2)n1,-3,0.37
c1ccc(Oc2ccc(-c3nc(N4CCCCCC4)c4ccccc4n3)cc2)cc1,-9,1.14
Cc1ccc(CNC(=O)c2ccc3nnnn3c2)o1,-5,0.92
CC(=O)c1cccc(S(=O)(=O)N2CCN(C(=O)CCc3nc4ccccc4s3)CC2)c1,-17,2.21
CN(CCc1cnn(C)c1)Cc1ccc(-c2cc[nH]n2)s1,-3,0.5
CC(C)N(C)Cc1nc(CN2C(=O)NC(C)(C)C2=O)no1,-2,0.23
COc1cc(C2[C@@H]3C(C)NC(=O)N(C)[C@@H]3NC(=O)N2C)ccc1O (some centres undefined),-5,0.68
CN(C)[C@H]1CCN(Cc2ccc(Cl)c(F)c2)C[C@H]1CCCO,12,-1.58
CC(C)c1nsc(N2CCC3CCC(C2)N3C(C)C)n1 (centres undefined),4,-0.49

SMILES,% Inhibition [%],Z score
COCc1cn([C@@H]2CC[C@H]3CCOc4ccccc4C(=O)N4CCN(C5CCN(C(C)=O)CC5)C[C@H]4C(=O)NC[C@H]2O3)nn1,-3,0.61
COC[C@@H]1[C@H](C(=O)Nc2cc(C)ccc2OC)CCCN1Cc1ccccc1,0,-0.02
CCN1CCN(Cc2ccc(NC(=O)Nc3cn(CC(C)C)c(=O)c4ccccc34)cc2)CC1,-7,1.19
O=C(NCc1ccco1)c1nn(-c2ccc(F)cc2)c(=O)n(Cc2ccccc2)c1=O,-18,1.84
COCCNC(=O)c1ccc(CN(c2nc(-c3ccc(C)cc3)cs2)c2ccccc2Cl)o1,3,-0.37
COc1cc(Cl)cc2c1OC=CC(C(=O)Nc1ncc(Cc3ccccc3)s1)=C2,37,-4.93
CCc1noc(C)c1C(=O)N[C@@H]1[C@H]2CCO[C@H]2[C@@H]1COC,2,-0.26
Cc1ncc(CNC(=O)c2cc(C3CC3)n(C)n2)c(N)n1,-12,2.21
Cc1ccc2[nH]c3c(=O)n(CC(=O)N4CCN(Cc5ccc6c(c5)OCO6)CC4)ncc3c2c1,-1,0.15
CN(C(=O)c1ccccc1N1CCC(NC(=O)c2ccc(C(F)(F)F)cc2)CC1)C1CCCCC1,-8,1.3
COc1cccc(Cn2c(=O)[nH]c3cc(-c4nc(-c5ccc(OC)c(OC)c5)no4)ccc3c2=O)c1,-15,2.43
CC(C)(C)c1ccc(C(C)(C)C)c(-n2cnnc2)c1,-12,1.17
CC(C(=O)N1CCc2ncccc2C1)=C1CCCC1,5,-0.96
COc1cccc(CNC(=O)N2CC(O)(c3cccc(Br)c3)C2)n1,-16,3.24
CCn1cncc1[C@@H]1CCCCN1C(=O)Nc1conc1C,-3,0.37
Cc1ccc(Cn2nc(-c3ccccc3)c3cnc4ccccc4c32)cc1,10,-1.96
CCS(=O)(=O)N1CCc2nc(NC(C)=O)sc2C1,-6,0.93
CCc1nc(C#N)cc(NC2CCCCC2C#N)n1 (centres undefined),10,-1.12
O=C1CC2(CCN(C(=O)c3ccon3)CC2)CN1Cc1ccc(F)c(F)c1,1,-0.19
Cc1noc(C)c1CCC(=O)Nc1cc(C(C)(C)C)no1,-8,0.7
Cc1cccc(NC(=O)CN2CCn3nnc(-c4nc(-c5ccccc5)no4)c3C2=O)c1C,-14,1.6

SMILES,% Inhibition [%],Z score
COC(=O)c1ccc(S(=O)(=O)Nc2nc(C3CC3)cs2)cn1,1,-0.15
O=S(=O)(c1ccc(F)cc1)N1CCN(Cc2noc(-c3cccc(F)c3)n2)CC1,-10,1.41
Cc1ccnc(N2C(=O)[C@H](C)N(C3CCC3)C2=O)c1,-6,0.7
Cc1ccc(-c2noc(CN3C[C@@H]4NCCO[C@H]4C3)n2)cc1,-6,0.94
C[C@@H](c1cccc(O)c1)N(C)CC(=O)NCC(F)(F)F,-5,0.49
O=C(Nc1ccc(S(=O)(=O)N(Cc2ccccc2)c2ccccc2)cc1)c1ccc(F)cc1,18,-2.05
O=C(NCc1ccccc1)[C@]1(F)CCN(S(=O)(=O)c2cccc3cccnc23)C1,-8,1
COc1ccc(/C=C/CN2C[C@H](C(=O)O)[C@@H](c3ccccc3OC)C2)cc1,4,-0.45
CCc1ccc(-n2c(=O)c3c(n2CC(=O)N[C@@H](C)CCc2ccccc2)Oc2ccc(Cl)cc2C3)cc1,-8,1.04
CC(=O)Nc1nc(CC(=O)Nc2ncc(C)s2)cs1,-9,1.02
Clc1ccc(-c2n[nH]c(CN3CCOCC3)n2)cc1,-14,1.85
CC(c1cccs1)N(C)C(=O)C1CCCC(C(=O)O)C1 (centres undefined),-3,0.43
Cc1n[nH]c(CCC(=O)N2CCn3nc(C(=O)Nc4ccccc4)cc3C2)n1,3,-0.57
CC(C)(C)c1ccc(OCC(=O)N2N=C3CCCCCC3C2(O)C(F)(F)F)cc1 (centres undefined),-10,1.33
CS(=O)(=O)CC1(Cc2nc(Cc3ccccc3)no2)CC1,-12,1.11
CCCNC(=O)Cc1c2c(n(CCc3ccccc3)c1C)CCCC2=O,-26,2.25
O=C(Cn1ncn2nccc2c1=O)Nc1ccnc2c(Cl)cc(Br)cc12,-11,1.03
Cc1cc2n(n1)CCCN2C(=O)CCC(=O)N1CCc2ccccc2C1,1,-0.1
O=C1NC[C@@]2(CCCN(C(=O)c3cc(C(F)(F)F)ccc3Cl)C2)O1,-14,1.52
Cc1cc(-c2nnc3n2CC(C)(C)CC3)c(C)o1,36,-4.88
CC(=O)Nc1ccc(Cc2nc(-c3cccc(-c4csc(C)n4)c3)no2)cc1,-11,1.74

SMILES,% Inhibition [%],Z score
COc1ccc(Nc2ncccc2S(=O)(=O)Nc2ccc(C)cc2)cc1OC,-8,1.58
CCOc1ccc(-c2cc3n(n2)CCCN(C(C)=O)C3)cc1,-9,0.97
COc1ccc([C@@H](O)Cn2cnc(C(=O)N3CCN(c4ccc(Cl)cc4)CC3)n2)cc1,-11,1.28
Cn1nc(-c2cc(F)cc(F)c2)cc1NC(=O)NC[C@H]1COCO1,-6,0.81
Cc1ccc(F)cc1CNC[C@H]1CC[C@@H](CO)O1,19,-2.36
CCCc1nc(C)sc1C(=O)Nc1nc(C(=O)OC)c(CC(C)C)s1,-15,1.9
COc1ccc(-c2cnn3c(C)cc(C)nc23)cc1S(=O)(=O)NCc1ccc(F)cc1F,-16,1.57
CN(Cc1csc(-c2ccccc2)n1)C(=O)CN1CCOC1=O,2,-0.43
CCOc1ccc2nc(N3CCOC3=O)sc2c1,-38,4.51
COc1cc(CNc2ccc(Br)cc2CO)sn1,-9,1.54
Cc1cc(C(=O)NCc2ccco2)c2c(=O)n(C)c(=O)n(C)c2n1,-16,2.13
Cc1ccc(C)c(CN2CC[C@]3(O)CCN(C(=O)C4CCC4)C[C@@H]3C2)c1,-10,1.43
O=C(CCS(=O)(=O)c1ccccc1)N1CCO[C@H](c2ccc(C(F)(F)F)cc2)C1,-13,2.07
Cn1cc(NC(=O)NCC(C)(C)C2CCOCC2)nn1,-13,2.48
Cc1ccc(F)c(C(=O)OCC2(C#N)CCOCC2)c1,-5,0.78
CC(=O)c1ccccc1C(=O)NCc1ccnc(OC2CCC2)c1,-14,2.68
COc1ccc(C)cc1NC(=O)Cn1c(=O)n(C(C)C)c2ccc(S(=O)(=O)N3CCCC3)cc21,-2,0.19
COCCc1nc(C[C@@H]2NC(=O)c3ccccc32)n(CC(C)(C)O)n1,-2,0.44
Cc1nnccc1NC(=O)N(C)CC1(O)CCCCCC1,-15,2.8
